The values below come from article PMC3981784 (PLoS ONE, 2014).

One assay concerns A/PR/8/34 (H1N1). In words: Hemagglutination inhibition assay with chicken red blood cells. The following applies: Influenza A virus, Erythrocyte, read-out: EC50, inhibition of virus-induced hemagglutination.
The subject of another assay is A/HK/8/68 (H3N2). Described as above. Conditions: Influenza A virus, H3N2, Erythrocyte, read-out: EC50, inhibition of virus-induced hemagglutination.
The test system of assay [1] is influenza viruses A/WSN/33(H1N1), A/PR/8/34(H1N1), and A/HK/8/68(H3N2). In words: Plaque reduction assay on MDCK cells. It is filed as cell-based, influenza A virus. Conditions: virus pre-incubated with sample on ice 1 hour, three strains. On the technique in general: Plaques are areas of infected cells; plaque reduction assays count them against a control.
The subject of assay [2] is A/WSN/33(H1N1), A/PR/8/34(H1N1), and A/HK/8/68(H3N2). In words: Hemagglutination inhibition assays, result in words for the three virus subtypes (Fig. 1B).
Assay [3] concerns recombinant HA of A/Puerto Rico/8/1934 (H1N1), A/California/04/2009 (H1N1), A/Netherlands/219/03 (H7N7), and A/Anhui/1/2005 (H5N1). Conditions: HA incubated on ice 30 min with compound; four HA subtypes.

The term EC50 denotes the concentration needed to bring the measured effect to its halfway point.

Molecules are shown by their SMILES.

Turning to `O=c1oc2c(O)c(O)cc3c(=O)oc4c(O)c(O)cc1c4c23` [EA, Ellagic acid], the EC50 with A/PR/8/34 (H1N1) came out at 418 ± 370 nM; in the assay with A/HK/8/68 (H3N2) it was 781 nM.
For `O=C(O[C@@H]1Cc2c(O)cc(O)cc2O[C@@H]1c1cc(O)c(O)c(O)c1)c1cc(O)c(O)c(O)c1` [EGCG, (−)-epigallocatechin-3-gallate], in that order: 307 ± 260 nM and 731 nM.
As to `O=C(O)c1cc(O)c(O)c(O)c1` [GA, Gallic acid], the EC50 in the assay on A/PR/8/34 (H1N1) and with A/HK/8/68 (H3N2) was above 50000 nM throughout. Also, in assay [1], the “effect on virus titers (viral infectivity)” value (from here on “effect on virus titers”) was “does not show inhibitory effect on virus titers”. In addition, in assay [2], the “inhibition of virus-induced hemagglutination (in words)” value was “cannot inhibit virus-induced hemagglutination”.
`O=C(OC[C@H]1O[C@@H](OC(=O)c2cc(O)c(O)c(O)c2)[C@H](OC(=O)c2cc(O)c(O)c(O)c2)[C@@H](OC(=O)c2cc(O)c(O)c(O)c2)[C@@H]1OC(=O)c1cc(O)c(O)c(O)c1)c1cc(O)c(O)c(O)c1` [PGG, penta-galloyl-glucose]: the EC50 in the assay with A/PR/8/34 (H1N1) turned out to be 4 ± 4 nM; in the assay on A/HK/8/68 (H3N2) it was 202 ± 206 nM. For the same compound, in assay [1], the “effect on virus titers” value is “significantly reduced the virus titers”. Moreover, in assay [3], the “HA aggregation on native PAGE (HA polymer formation)” value is “concentration of HA polymer increases while the concentration of the incubated PGG increases”.
`O=C(OC[C@H]1O[C@@H](OC(=O)c2cc(O)c(O)c(O)c2)[C@H](OC(=O)c2cc(O)c(O)c(O)c2)[C@@H](OC(=O)c2cc(O)c(O)c(O)c2)[C@@H]1O)c1cc(O)c(O)c(O)c1` [TGG, 1,2,3,6-Tetra-O-galloyl-beta-D-glucose]: the EC50 in the assay with A/PR/8/34 (H1N1) turned out to be 1 ± 2 nM; with A/HK/8/68 (H3N2), 195 nM. Besides, in assay [1], the “effect on virus titers” value was “significantly reduced the virus titers”.
